According to PubChem BioAssay AID1508623 (National Center for Advancing Translational Sciences (NCATS), 2021):
Hit rate of the full screen: of about 48,000 compounds, about 450 (0.94%) were called active. About 19% were inconclusive and are not listed. Calls follow the shape of the dose curve; as a rule, active = well fitted inhibition curve with a large enough effect; inconclusive = small, poorly fitted or top-dose-only effect; inactive = no such curve, though single readings can be large or run the other way. This is one part of the list.

Experiment: Primary qHTS for Identification of Small Molecule Inhibitors of Huntingtin Promoter Activity; also: nearly all actives have a fitted effect of over 50% in size
Conditions: HEK293 HTT promoter firefly luciferase reporter (activity 0% = vehicle and -100% = no light), 24 h; series mostly up to 57.5 µM; activity change, negative = inhibition: at the top concentration
In short: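 HEK293 luciferase promoter-reporter cells (2,500/well) plated 24 h, then compounds added at up to 57.5 uM final for 24 h at 37 °C. Firefly luminescence by Dual-Glo, normalized to vehicle (0%) and zero RLU (-100%).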

Activity change, negative = inhibition, inactive:
COc1ccc(C)cc1NC(=O)c1cc(S(=O)(=O)N2CCCCC2)c[nH]1 -22.5%
Cc1cc(C)cc(NC(=O)CCCc2nc(-c3ccco3)no2)c1 -22.1%
Cc1cc(-n2c(C)nc3ccccc3c2=O)ccc1NC(=O)c1ccccc1[N+](=O)[O-] -8.11%
O=C(CCSCCc1ccccn1)Nc1ccccc1C(F)(F)F -19.3%
CCc1ccccc1NC(=O)Cn1cc(C(=O)c2ccncc2)c(=O)c2cc(C)ccc21 0.759%
COc1ccc(CCNC(=O)c2cc(-c3ccc(C)cc3)nc3n[nH]c(-c4ccc(F)cc4)c23)cc1OC -18.2%
O=C(COCc1cc(-c2ccc(F)cc2)on1)Nc1cc(Cl)cc(Cl)c1 -16.8%
O=C(CCSCc1cccc(F)c1)NCCc1ccccc1 3.56%
Cc1ccc(N2CC(C(=O)NCCS(=O)(=O)N3CCN(c4ccc(F)cc4)CC3)CC2=O)cc1 (stereo unspecified) -10.5%
COc1cc(OC)c(NC(=O)Cn2c(=O)nc(-c3ccccc3)c3ccccc32)cc1Cl -10.6%
CC1=C(C(=O)Nc2cccc(F)c2)C2(CCCCCC2)OC1=O -16.6%
COc1cccc(Cn2c(=O)n(-c3cc(C)cc(C)c3)c(=O)c3oc4ccccc4c32)c1 -13.8%
Cc1ccc2c(=O)c(C(=O)c3cccc(Cl)c3)cn(CC(=O)NCc3ccccc3)c2n1 -4.07%
CCOc1cc(CNC(=O)c2cc(-c3ccc(Cl)s3)nc3ccccc23)ccc1OC -3.37%
COc1ccc(CCNC(=O)Cn2c(=O)cc(C(F)(F)F)c3c(C)nn(C)c32)c(OC)c1 -2.41%
Cc1ccc(N2CCN(S(=O)(=O)c3nnc(NC(=O)c4cccc(F)c4)s3)CC2)cc1 -29.2%
O=C(Cn1cccc1C(=O)c1ccccc1)NCc1ccc(Cl)cc1 -6.54%
COc1ccc(NC(=O)CNC(=O)Cn2ccc3ccccc3c2=O)c(OC)c1 -4.59%
CCCN1CCN(CCCNC(=O)c2cc3c(=O)[nH]c4ccccc4c3s2)CC1 -13.7%
Cc1ccc(CNC(=O)c2cnc(N3CCCC3)nc2C)cc1 -23.9%
CCc1ccccc1NC(=O)c1nnn(CC(=O)Nc2c(C)cc(C)cc2C)c1N -10.5%
Cc1cc(C)c2c(NC(=O)c3ccccc3Cl)c(C(=O)Nc3ccc(C)c(C)c3)sc2n1 40%
COc1cc(CNCCSc2nnnn2C)ccc1OCc1ccccc1 9.36%
C[C@@H]1[C@H](C)CC[C@]2(C(=O)O)CC[C@]3(C)C(=CC[C@@H]4[C@@]5(C)C[C@@H](O)[C@H](O)[C@@](C)(CO)[C@H]5CC[C@]43C)[C@@H]12 -4.94%
Cc1ccc2nc3sc(C(=O)Nc4ccc(F)cc4)cc3cc2c1 30.9%
CCOC(=O)c1cc(S(=O)(=O)N2CCN(c3cccc(C)c3)C(C)C2)[nH]n1 (stereo unspecified) -13.4%
